# Assay results from PubChem BioAssay AID488969 (Vanderbilt High Throughput Screening Facility, 2010).
# The full ranking holds about 110,000 compounds; the median of “z-score” is about -0.1, and the highest 2% start at about 2. Some of the results follow.
# Molecular target: Metabotropic glutamate receptor 8 (Rattus norvegicus) (UniProt P70579)
# Test: mGluR8 Gi/Go-coupled signaling modulation – cell-based, rat, thallium flux, HTS, primary screen (AID 488969)
# Settings: HEK293 rat mGluR8, GIRK (G protein-gated inwardly rectifying potassium channel) thallium flux, FluoZin2; at 10 µM; stronger effect = higher value; submaximal glutamate (EC20) added with thallium
# Chain of UniProt P70579 (P70579 whole entry, looked up): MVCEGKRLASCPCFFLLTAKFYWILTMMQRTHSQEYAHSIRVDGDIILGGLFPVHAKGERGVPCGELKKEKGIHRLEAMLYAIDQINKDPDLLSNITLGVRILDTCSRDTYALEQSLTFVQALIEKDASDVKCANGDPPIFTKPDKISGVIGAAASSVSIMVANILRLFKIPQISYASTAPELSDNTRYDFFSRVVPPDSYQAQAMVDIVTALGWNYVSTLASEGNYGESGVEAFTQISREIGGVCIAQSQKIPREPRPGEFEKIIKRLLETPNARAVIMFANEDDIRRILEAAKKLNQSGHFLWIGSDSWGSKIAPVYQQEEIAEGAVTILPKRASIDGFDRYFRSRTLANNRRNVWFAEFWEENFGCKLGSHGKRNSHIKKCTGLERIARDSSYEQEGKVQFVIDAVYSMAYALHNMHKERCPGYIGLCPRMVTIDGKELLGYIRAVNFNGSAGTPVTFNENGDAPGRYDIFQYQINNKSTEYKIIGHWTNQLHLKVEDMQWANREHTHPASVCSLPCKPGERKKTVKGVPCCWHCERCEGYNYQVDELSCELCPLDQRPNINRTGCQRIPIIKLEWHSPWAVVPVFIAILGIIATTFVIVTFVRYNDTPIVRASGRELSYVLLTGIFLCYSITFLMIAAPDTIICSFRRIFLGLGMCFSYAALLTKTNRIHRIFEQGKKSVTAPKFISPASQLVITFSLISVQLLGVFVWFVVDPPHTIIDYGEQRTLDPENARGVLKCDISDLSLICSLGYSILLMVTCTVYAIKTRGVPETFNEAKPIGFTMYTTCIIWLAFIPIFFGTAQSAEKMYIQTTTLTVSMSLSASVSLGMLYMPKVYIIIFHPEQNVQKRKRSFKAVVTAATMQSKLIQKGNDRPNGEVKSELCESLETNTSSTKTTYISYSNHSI
row,SMILES,z-score
1,CC1CCCCN1CC(=O)Nc1sccc1C#N (stereo unspecified),-0.0952
2,Clc1ccc(/C=C/c2nc3ccccc3[nH]2)cc1,-0.859
3,CC(=O)c1ccc(OCCCC(=O)Nc2ccc(C)c(S(=O)(=O)N(C)C)c2)cc1,0.136
4,Cc1nc(NC2=NC(C(=O)Nc3ccc(Cl)cc3)CC(=O)N2)nc2ccccc12 (stereo unspecified),-0.199
5,Cc1ccc(C)c(SCc2noc(C(=O)NC(C)C)c2C(=O)O)c1,-0.151
6,CCN(CC)C(C)C(=O)Nc1c2c(cc3c1CCC3)CCC2 (stereo unspecified),0.178
7,Cc1nc2ccccc2nc1SCC(=O)N1CCC(C)CC1,-0.613
8,COc1cccc(C(=O)Nc2cnc(NC(=O)c3ccco3)cc2C)c1,-0.117
9,Cc1nnc(NC(=O)C2CCCN(S(=O)(=O)c3ccccc3C(F)(F)F)C2)s1 (stereo unspecified),-0.201
10,CC(/C=N/NC(=O)Cc1cccn1C)=C\c1ccco1,-0.21
11,CCCN1C(=O)CN(C2CCCCCC2)C(=O)C1c1ccc(C)cc1 (stereo unspecified),-0.153
12,CSc1nnc(CNC(=O)C23CC4CC(CC(C4)C2)C3)n1Cc1ccccc1,-0.331
13,COc1ccc(/C(N)=N/OC(=O)CSc2ccc(C)cc2)cc1OC,-0.375
14,COc1ccc2cc(CN(Cc3cccs3)Cc3nnnn3Cc3ccccc3)c(=O)[nH]c2c1,0.659
15,COC(=O)c1ccc(/C=C/c2ccc3cccc(OC)c3n2)cc1,-0.279
16,O=C(c1cccnc1)N1CCN(S(=O)(=O)c2ccc(S(=O)(=O)N3CCCC3)cc2)CC1,-0.359
17,CCOC(=O)N1CCN(C(=O)c2ccc3c(c2)sc2nc(-c4ccccc4)cn23)CC1,-1.02
18,S=C(NNc1ccc2ccccc2c1)NC1CCCCC1,0.484
19,CC(C)(C)c1ccc(-c2conc2N)cc1,2.09
20,CCC(C)(C)n1nnnc1CN1CCc2ccccc21,0.382
21,COC(=O)c1ccc(C(=O)OC)c(NC(=O)COC(=O)c2ccc(OC)c(OC)c2OC)c1,0.323
22,O=C(CC(c1ccccc1)c1ccccc1)Nc1ccc(Cl)cn1,-0.00571
23,COCCCNc1nc2c(c(=O)[nH]c(=O)n2C)n1CC(O)COc1ccccc1C (stereo unspecified),1.05
24,Cc1nn(Cc2ccccc2Cl)c(C)c1NC(=O)/C=C/c1cnn(C)c1,-0.0832

row,SMILES,z-score
1,O=S(=O)(NCc1ccco1)N1CCOCC1,0.458
2,Cc1ccc(/C=N/NC(=O)c2cc(C3CC3)nc3ccccc23)o1,-0.0767
3,N#CC1=C(S)N=C(N)C(c2nc(-c3ccccc3)cs2)C12CCCCC2 (stereo unspecified),-0.242
4,Cc1nc2nc(C)c(CCC(=O)N3CCN(c4ccccc4)CC3)c(C)n2n1,-0.107
5,CCCc1nn(C(=O)c2ccccc2)c2c1C(=O)CC(C)(C)C2,0.0989
6,CCOC(=O)N1CCN(C(=O)C2CC(c3cc(OC)ccc3OC)=NO2)CC1 (stereo unspecified),-0.594
7,Nc1cc(=O)[nH]c(SCC(=O)Nc2cccc(Cl)c2)n1,0.151
8,COc1cc(CCN2C(=O)c3cccc4cccc(c34)C2=O)c(S(=O)(=O)N2CCCCCC2)cc1OC,-0.297
9,O=C1C(=O)c2c(C(=O)c3ccccc3)coc2-c2ccccc21,0.676
10,COC(=O)Nc1ccccc1C(=O)N1CCN(c2ccc(C)cc2)CC1,0.379
11,CCC(Sc1ncnc2c1c(-c1ccccc1)cn2-c1ccc(OC)cc1)C(=O)OC (stereo unspecified),-0.341
12,COc1cc(/C=C/c2cc(OC(C)=O)c3ccccc3n2)c(OC(C)=O)c([N+](=O)[O-])c1,-0.233
13,Cc1ccccc1Oc1ccc(-c2nc(N)nc(N)n2)cc1,-0.471
14,O=C(CSC1=NCCS1)NCc1ccco1,-0.376
15,CCCn1c2c(c(=N)c3c1CCC3)CCCC2,0.0153
16,CC(C)c1ccc(NS(=O)(=O)c2ccc(Cl)nc2)cc1,-0.135
17,CC(=O)N/C(=C\c1ccccc1Cl)C(=O)O,-0.0785
18,COc1ccc(-n2c(C)n[nH]c2=O)cc1OC,0.356
19,COc1ccc2c(c1OC)C(=O)OC2Nn1cncn1 (stereo unspecified),0.0161
20,CCCC(C(=O)n1nc(C)cc1C)C(NS(=O)(=O)c1ccc(C)cc1)c1ccccc1 (stereo unspecified),-0.165
21,Cn1c(CNc2ccccc2)nc2ccccc21,-0.169
22,CCOP(=O)(c1ccccc1)c1nc(-c2ccccc2C)oc1N1CCCCC1 (stereo unspecified),-1.7
23,COc1ccccc1-c1c(C(F)(F)F)oc2cc(OCC(=O)Nc3cc(C)ccc3C)ccc2c1=O,0.891
24,O=S(=O)(Nc1nc2c(s1)CCCC2)c1ccc2ccccc2c1,-0.38

row,SMILES,z-score
1,Cc1ccccc1C(=O)NCCCCc1ccccc1,-0.0963
2,COc1ccc(CCNc2nc(-c3sc(C)nc3C)cs2)cc1OC,-1.11
3,Cc1ccc(-c2c(C)n([O-])c3c([n+]2=O)CCCCC3)o1,-0.48
4,Cc1cc(C)cc(NCc2cc3c(cc2[N+](=O)[O-])OCO3)c1,0.373
5,Cc1cccc2cc(CN(Cc3ccco3)S(=O)(=O)c3ccc4c(c3)OCCO4)c(=O)[nH]c12,-0.806
6,CCOCCc1nnc(NC(=O)Cc2ccc(Br)cc2)s1,0.416
7,COC(=O)c1cccc(NC(=O)Cc2ccccc2[N+](=O)[O-])c1C,-0.17
8,CCC(=NCc1ccccc1)C1=C(O)C(C(=O)OC)C(C)(C)CC1=O (stereo unspecified),0.197
9,CCC(=O)Nc1ccc2c(c1)ncn2-c1ccc(OC)cc1,2.82
10,CC(N=Cc1nc(-c2ccccc2)oc1O)c1ccccc1 (stereo unspecified),-0.238
11,CCN1CC2=C(OC(N)=C(C#N)C2c2cccs2)/C(=C\c2cccs2)C1 (stereo unspecified),-0.385
12,COc1ccc(-c2n[nH]c(=S)o2)c(OC)c1,0.0321
13,Brc1ccccc1-c1nnc(COc2cccc3cccnc23)o1,-1.97
14,Cc1noc(C)c1S(=O)(=O)NCCN1CCN(c2ccccc2)CC1,-0.863
15,Cc1csc(N(C(=O)CCNC(=O)c2ccc([N+](=O)[O-])cc2)c2ccccc2)n1,0.168
16,NC(=O)C1CCN(C(=O)C23CC4CC(CC(C4)C2)C3)CC1,-0.0229
17,Cc1c(NC(=O)c2ccccc2)c(=O)n(-c2ccccc2)n1C,-0.317
18,CN=C1SC(C(=O)O)CC(=O)N1C (stereo unspecified),-0.651
19,CCOC(=O)C1=C(C)N=c2s/c(=C3/C(=O)Nc4ccccc43)c(=O)n2C1c1ccc(C)cc1 (stereo unspecified),-0.338
20,Cc1noc(C)c1COC(=O)[C@H](C)NS(=O)(=O)c1ccc(Cl)c(Cl)c1,-0.0784
21,CC1CC(C)CN(CCCNC(=O)CC2Oc3ccccc3NC2=O)C1 (stereo unspecified),-0.048
22,COc1ccc(-c2cn3c(C)c(C(=O)Nc4cc(NC(C)=O)ccc4OC)sc3n2)cc1,0.107
23,COc1ccccc1-c1nc(S(=O)(=O)c2ccc(Cl)cc2)c(N(C)C)o1,0.0518
